B1: tRNA (parent)
chain: CUCUCGGUAGCCAAGUUGGUUUAAGGCGCAAGACUUUAAUUUAUCACUACGAAAUCUUGAGAUCGGGCGUUCGACUCGCCCCCGGGAGAUUUUUUCCUCGAGCAA

Results on 83 variants are retold here after the RNAGym collection of RNA variant scans (doi:10.1101/gad.245936.114).

Variants at the floor of the assay are shown more often than the library holds them.

The variants in the data set derive from B1. In words: nonsense suppression (GFP-seq) (ratio to wild type); higher = more function; SUP4oc tRNA, yeast GFP reporter sort-seq. The method, boiled down:
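Sorted GFP/RFP bins of yeast were each Illumina-sequenced with a phred ≥30 cutoff; the cells held a genome-integrated ochre-suppressor tRNA variant from a library with ~3% random mutations, a galactose-driven GFP ochre reporter, and RFP. Culture was in raffinose/galactose medium containing 80 mg/L adenine. Nonsense suppression, termed GFPSEQ, is the median GFP/RFP of the bins weighted by each variant's estimated cell share per bin, relative to the unmutated parent tRNA, for variants reaching ≥100 reads and ≥30 cells.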
Consider U8C C80G, for which the nonsense suppression is at most 0.026.
For G6A U20C U22A G28U G84C the value was at most 0.026; for A14G G61U U70C, at most 0.026.
Regarding A13G G19A G65A, the nonsense suppression was at most 0.026.
As for A31U G67A C77U, the nonsense suppression was at most 0.026.
For C83G A87C G88C, the nonsense suppression is at most 0.026.
As for A9C A23G G32A G85A, the nonsense suppression is at most 0.026.
With C5A A23C A31G G61A the figure was at most 0.026; with U2A A31C, at most 0.026.
For G19U A30U A31C A33U the value was at most 0.026; for A23U G84A, at most 0.026; for G32U G69C, at most 0.026.
Regarding U8G C12U C75U, the nonsense suppression is at most 0.026.
For G6U G66C the value was at most 0.026.
With U16C G61C G66U the figure was at most 0.026.
With U20G A54U the figure was 1.04; with U2C C82G, at most 0.026; with A9C A30G U57A G84A, at most 0.026.
As for C3G C68U G88A, the nonsense suppression is at most 0.026.
For U22A G73U U76A the value was at most 0.026; for U4A A9U C83A, at most 0.026.
For A24C U63C A87G the value was at most 0.026; for G25C C68U, 0.031.
With U8G G25C A33U the figure was at most 0.026.
For C11G U22C A54C G67U C83U, the nonsense suppression is at most 0.026.
For U71G G84C the value was at most 0.026; for U57A G69U C83G, at most 0.026; for U2C G69C, at most 0.026.
For U63G G65U the value was at most 0.026; for U8G A33G U57C U58C C77A C79U, at most 0.026.
With A9G A30G C68U the figure was at most 0.026; with C3A C34A G88C, at most 0.026; with C3G C5A C12U G15U U58A, at most 0.026.
In the case of G18U A54U U58A, the nonsense suppression is at most 0.026.
With G59A C68G C79A the figure was at most 0.026; with A9G U17C, 0.113; with U2A C3U C29G, at most 0.026.
For U17A A31C G59U G85U the value was at most 0.026; for C5U G19U A30U U55C, at most 0.026.
For G73U C82U, the nonsense suppression is at most 0.026.
As for U35C C82U, the nonsense suppression was at most 0.026.
For U2G A14G G28U U57G G67C, the nonsense suppression is at most 0.026.
Take G6A A62U: the nonsense suppression was at most 0.026.
With U21G U22G the figure was 0.571.
For A24U C56A U63G, the nonsense suppression was at most 0.026.
Consider G19C U76A A89U, for which the nonsense suppression is at most 0.026.
As to A33G A54C C64U, the nonsense suppression was at most 0.026.
For G7C C27U C29A A74G the value was at most 0.026; for U2G U20A U22C, at most 0.026; for G7C U70G, at most 0.026.
With C34A G69C U70C U76C the figure was at most 0.026; with A9C A14G U55A G61A, at most 0.026; with U57G G85A G86C, at most 0.026.
U16A G59U: the nonsense suppression was at most 0.026.
Turning to G28U U57C C68G, the nonsense suppression is at most 0.026.
As to U8C A14G G19U G26A U55A U70A, the nonsense suppression is at most 0.026.
As to G10C C29A U76A, the nonsense suppression is at most 0.026.
As for C11A G18C C34U U55C, the nonsense suppression was at most 0.026.
With C1A A54G the figure was at most 0.026; with C1U C27A A89U, at most 0.026.
Turning to A31U A62C, the nonsense suppression is at most 0.026.
For the variant U17C C27G U58C G67C, the nonsense suppression was at most 0.026.
In the case of U4A U17A, the nonsense suppression is 0.174.
For U8A U63C the value was at most 0.026; for A14U G15A G86A, at most 0.026; for U35A A89U, at most 0.026.
Take G10A C56A U57C G86A: the nonsense suppression is at most 0.026.
With G32C C64G the figure was at most 0.026; with U20C G73C G88U, at most 0.026.
C5U C81G: the nonsense suppression is at most 0.026.
With C11A G19U G28A C34U G59A G86C the figure was at most 0.026; with A24C C68A, at most 0.026; with U16A C34G, at most 0.026.
U4G U22G: the nonsense suppression amounted to 0.492.
On to C5A G28U A62C, for which the nonsense suppression is at most 0.026.
With U4G A31G G73A the figure was at most 0.026; with U2A G6U C80U, at most 0.026.
U21A A54G U70C U71G: the nonsense suppression was at most 0.026.
For G28C C79A G85C the value was 0.0328; for G10U A54C G86C, at most 0.026.
As for G18U G28C C29A U57C, the nonsense suppression was at most 0.026.
With G19A U76G the figure was at most 0.026.
For U8C A60U G73A, the nonsense suppression is at most 0.026.
